Measured values reported in PubChem BioAssay AID288 (DTP/NCI, 2004).
Inconclusive results are not listed. For part of its entries the source gives two or more results. The list is limited to them. An entry can have further records. Values given together differ for a reason that is not stated; they may come from other doses, times, organisms or constructs than stated.

Test system: BDF1 mice, M5076 sarcoma s.c., survival/tumor T/C
Assay: NCI In Vivo Anticancer Drug Screen. Data for tumor model Sarcoma M5076 (subcutaneous) in B6D2F1 (BDF1) mice
Settings: endpoint: median survival time; dose: 38.9 mg/kg/injection; schedule: Q01DX017 (sc); vehicle: Klucel (hydroxypropylcellulose) (HPC); higher = longer survival
Method: The antitumor activity of compounds was measured in mice bearing transplantable tumors. Survival or tumor size were measured and the results are expressed as the measurement made in the treated group (T) divided by the measurement made in the vehicle treated control group (C). The tumor model used in this assay is Sarcoma M5076 (subcutaneous) in B6D2F1 (BDF1) mice

## CC1(CO)C(O)CCC2(C)C1CCC1CC3CC12CCC3(O)CO (stereo unspecified)
  T/C: 121 % of control and 160 % of control
